{"source": "PubChem BioAssay AID262", "about": "(DTP/NCI, 2004)", "test_system": "LX-1 lung xenograft sc, nude mice, tumor weight", "assay": "NCI In Vivo Anticancer Drug Screen. Data for tumor model Human Lung LX-1 Xenograft (subcutaneous) in NU/NU Swiss (nude) mice", "conditions": "endpoint: optimum tumor weight change, schedule: Q04DX003 (ip), higher = larger tumour", "description": "The antitumor activity of compounds was measured in mice bearing transplantable tumors. Survival or tumor size were measured and the results are expressed as the measurement made in the treated group (T) divided by the measurement made in the vehicle treated control group (C). The tumor model used in this assay is Human Lung LX-1 Xenograft (subcutaneous) in NU/NU Swiss (nude) mice", "key": {"[1]": {"conditions": "dose: 100.0 mg/kg/injection, vehicle: Klucel (hydroxypropylcellulose) (HPC)"}, "[2]": {"conditions": "dose: 200.0 mg/kg/injection, vehicle: suspension in saline"}}, "note": "Not every entry of the source has a single result; some have several. The list is limited to them. An entry can have further records. The records of an entry differ for a reason that is not stated; some may be repeats, others may stem from another dose, organism or construct than stated.", "data": [{"smiles": "CN(C)N=Nc1cn[nH]c1C(N)=O", "values": [{"measurement": "T/C", "setting": "[1]", "result": "-80 % of control, -72 % of control, 56 % of control"}]}, {"smiles": "CCc1ccccc1N1CCN(C(=O)c2cc(OC)c(OC)c(OC)c2)CC1", "values": [{"measurement": "T/C", "setting": "dose: 12.5 mg/kg/injection, vehicle: Klucel (hydroxypropylcellulose) (HPC)", "result": "70 % of control, 81 % of control, 153 % of control"}, {"measurement": "T/C", "setting": "dose: 50.0 mg/kg/injection, vehicle: Klucel (hydroxypropylcellulose) (HPC)", "result": "61 % of control, 77 % of control, 101 % of control"}]}, {"smiles": "Cc1c(N)nc([C@H](CC(N)=O)NC[C@H](N)C(N)=O)nc1C(=O)N[C@H](C(=O)N[C@H](C)[C@@H](O)[C@H](C)C(=O)N[C@H](C(=O)NCCc1nc(-c2nc(C(=O)NCCC[S+](C)C)cs2)cs1)[C@@H](C)O)C(OC1OC(CO)C(O)C(O)C1OC1OC(CO)C(O)C(OC(N)=O)C1O)c1cnc[nH]1", "note": "(stereo not given in full)", "values": [{"measurement": "T/C", "setting": "dose: 7.5 mg/kg/injection, vehicle: saline", "result": "39 % of control and 67 % of control"}, {"measurement": "T/C", "setting": "dose: 8.0 mg/kg/injection, vehicle: saline", "result": "30 % of control, 66 % of control, 73 % of control"}, {"measurement": "T/C", "setting": "dose: 15.0 mg/kg/injection, vehicle: saline", "result": "35 % of control and 79 % of control"}, {"measurement": "T/C", "setting": "dose: 32.0 mg/kg/injection, vehicle: saline", "result": "29 % of control and 57 % of control"}]}, {"smiles": "CCN(C)N=Nc1ccc(C(N)=O)cc1", "values": [{"measurement": "T/C", "setting": "[1]", "result": "-44 % of control and -18 % of control"}]}, {"smiles": "N=c1ccn2c(n1)OC1C(O)C(CO)OC12", "note": "(stereo not given)", "values": [{"measurement": "T/C", "setting": "[2]", "result": "53 % of control and 80 % of control"}]}, {"smiles": "CC(CN1CC(=O)NC(=O)C1)N1CC(=O)NC(=O)C1", "note": "(stereo not given)", "values": [{"measurement": "T/C", "setting": "[2]", "result": "63 % of control and 91 % of control"}]}]}
